From publication PMC9911399, “Two distinct binding modes provide the RNA-binding protein RbFox with extraordinary sequence specificity”
Numbering of substitutions follows the chain as printed; changes in the protein carry UniProt numbers. The list shows a part of the results.

B1: AUUGGGU (DNA:RNA)
RNA: GGGAGACCGGAAUUCAGAUUGUCCAUUGGGUUUAAAUCCCGUCGUAGCCACCA
DNA 1: CAATCTGAATTCCGGTCTCCC
DNA 2: TGGTGGCTACGACGGGATT
B2: UUCCACC (DNA:RNA)
RNA: B1 RNA with A25U, U27C, G28C, G29A, G30C, U31C
DNA 1: CAATCTGAATTCCGGTCTCCC
DNA 2: TGGTGGCTACGACGGGATT
B3: GGCGCAG (DNA:RNA)
RNA: B1 RNA with A25G, U26G, U27C, G29C, G30A, U31G
DNA 1: CAATCTGAATTCCGGTCTCCC
DNA 2: TGGTGGCTACGACGGGATT
B4: UUAGAGC (DNA:RNA)
RNA: B1 RNA with A25U, U27A, G29A, U31C
DNA 1: CAATCTGAATTCCGGTCTCCC
DNA 2: TGGTGGCTACGACGGGATT
B5: AACGUAG (DNA:RNA)
RNA: B1 RNA with U26A, U27C, G29U, G30A, U31G
DNA 1: CAATCTGAATTCCGGTCTCCC
DNA 2: TGGTGGCTACGACGGGATT
B6: UAAAGUC (DNA:RNA)
RNA: B1 RNA with A25U, U26A, U27A, G28A, G30U, U31C
DNA 1: CAATCTGAATTCCGGTCTCCC
DNA 2: TGGTGGCTACGACGGGATT
B7: UUGACAU (DNA:RNA)
RNA: B1 RNA with A25U, U27G, G28A, G29C, G30A
DNA 1: CAATCTGAATTCCGGTCTCCC
DNA 2: TGGTGGCTACGACGGGATT
B8: GCGCGAA (DNA:RNA)
RNA: B1 RNA with A25G, U26C, U27G, G28C, G30A, U31A
DNA 1: CAATCTGAATTCCGGTCTCCC
DNA 2: TGGTGGCTACGACGGGATT
B9: CUAUCGA (DNA:RNA)
RNA: B1 RNA with A25C, U27A, G28U, G29C, U31A
DNA 1: CAATCTGAATTCCGGTCTCCC
DNA 2: TGGTGGCTACGACGGGATT
B10: UGACUAC (DNA:RNA)
RNA: GGGAGACCGGAAUUCAGAUUGUCCUGACUACUUAAAUCCCGUCGUAGCCACCA
DNA 1: CAATCTGAATTCCGGTCTCCC
DNA 2: TGGTGGCTACGACGGGATT
B11: AUCGGAU (DNA:RNA)
RNA: B1 RNA with U27C, G30A
DNA 1: CAATCTGAATTCCGGTCTCCC
DNA 2: TGGTGGCTACGACGGGATT
B12: UAAACCG (DNA:RNA)
RNA: B10 RNA with G26A, C28A, U29C, A30C, C31G
DNA 1: CAATCTGAATTCCGGTCTCCC
DNA 2: TGGTGGCTACGACGGGATT
B13: AUGUACA (DNA:RNA)
RNA: B1 RNA with U27G, G28U, G29A, G30C, U31A
DNA 1: CAATCTGAATTCCGGTCTCCC
DNA 2: TGGTGGCTACGACGGGATT
B14: GCGCCCA (DNA:RNA)
RNA: B10 RNA with U25G, G26C, A27G, U29C, A30C, C31A
DNA 1: CAATCTGAATTCCGGTCTCCC
DNA 2: TGGTGGCTACGACGGGATT
B15: GCAACAG (DNA:RNA)
RNA: B10 RNA with U25G, G26C, C28A, U29C, C31G
DNA 1: CAATCTGAATTCCGGTCTCCC
DNA 2: TGGTGGCTACGACGGGATT
B16: GAUUUGC (DNA:RNA)
RNA: B1 RNA with A25G, U26A, G28U, G29U, U31C
DNA 1: CAATCTGAATTCCGGTCTCCC
DNA 2: TGGTGGCTACGACGGGATT
B17: CGUCCUC (DNA:RNA)
RNA: B10 RNA with U25C, A27U, U29C, A30U
DNA 1: CAATCTGAATTCCGGTCTCCC
DNA 2: TGGTGGCTACGACGGGATT
B18: CCUAACU (DNA:RNA)
RNA: B1 RNA with A25C, U26C, G28A, G29A, G30C
DNA 1: CAATCTGAATTCCGGTCTCCC
DNA 2: TGGTGGCTACGACGGGATT
B19: ACCGCUA (DNA:RNA)
RNA: B1 RNA with U26C, U27C, G29C, G30U, U31A
DNA 1: CAATCTGAATTCCGGTCTCCC
DNA 2: TGGTGGCTACGACGGGATT
B20: UUAUGUA (DNA:RNA)
RNA: B1 RNA with A25U, U27A, G28U, G30U, U31A
DNA 1: CAATCTGAATTCCGGTCTCCC
DNA 2: TGGTGGCTACGACGGGATT

Target: T1, RBFOX1 RRM RbFoxmut (Fox-RRM*) (Homo sapiens, UniProt Q9NWB1 109-208, R118D;E147R;N151S;E152T)
T1 sequence: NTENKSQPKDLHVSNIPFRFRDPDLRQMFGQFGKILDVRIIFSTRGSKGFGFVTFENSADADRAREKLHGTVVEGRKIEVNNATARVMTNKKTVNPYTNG
Assay: EMSA; HiTS-Eq, 1 nM pool, 10 min; buffer printed only for the single-RNA assays: 10 mM Tris pH 7.5, 150 mM NaCl, 3.4 mM EDTA, 0.001% NP-40, 30 C
Details: tags: His6 N-terminal (pET28a); label: 5' 32P
Method in brief: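 These values rest on relative association constants, computed from read-count changes of each RNA species versus the control reaction and normalised to the cognate motif. Reads came from free RNA recovered by 8% native PAGE after purified RbFox RRM (wild type or mutant) at increasing concentrations was equilibrated for 10 min in 50 µL with 1 nM of a 5′-radiolabelled pool with 7 randomized nucleotides and DNA-annealed flanks.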

Binder	binding signal
B1	0.111 KA relative to UGCAUGU
B2	0.112 KA relative to UGCAUGU
B3	0.0989 KA relative to UGCAUGU
B4	0.0822 KA relative to UGCAUGU
B5	0.0975 KA relative to UGCAUGU
B6	0.0419 KA relative to UGCAUGU
B7	0.0616 KA relative to UGCAUGU
B8	0.104 KA relative to UGCAUGU
B9	0.0597 KA relative to UGCAUGU
B10	0.0857 KA relative to UGCAUGU
B11	0.0956 KA relative to UGCAUGU
B12	0.0862 KA relative to UGCAUGU
B13	0.124 KA relative to UGCAUGU
B14	0.0736 KA relative to UGCAUGU
B15	0.0871 KA relative to UGCAUGU
B16	0.0946 KA relative to UGCAUGU
B17	0.0728 KA relative to UGCAUGU
B18	0.0895 KA relative to UGCAUGU
B19	0.0962 KA relative to UGCAUGU
B20	0.19 KA relative to UGCAUGU
